Where two headings read alike, the source gives them in different places.
Target: SjHSS version (HSS1) (Jacobaea vulgaris, UniProt Q5ZN56)
Conditions: TEA buffer pH 9.5, EDTA, DTT, 30 °C, 1 h

NCCCCN [putrescine]
HPLC of dansylated polyamines, homospermidine and 1,3-diaminopropane formation (with spermidine and NAD+): in vitro enzyme assays with spermidine and putrescine as substrates were carried out

NCCCCNCCCN [spermidine]
HPLC of dansylated polyamines, homospermidine and 1,3-diaminopropane formation (with putrescine and NAD+): in vitro enzyme assays with spermidine and putrescine as substrates were carried out

— article PMC8355542, “The Orphan Crop Crassocephalum crepidioides Accumulates the Pyrrolizidine Alkaloid Jacobine in Response to Nitrogen Starvation” (Frontiers in Plant Science, 2021)
